The results in this text go back to patent US20240132588A1 (SHAPERON, published 2024).

Experiment [1] concerns the target T1, CD47 antigen expressed on Expi-CHO_CD47 cells (human, UniProt Q08722).
T1 construct: whole, on cells; also called Expi-CHO cells that constantly express the CD47 antigen
As to the kind of experiment: FACS on Expi-CHO_CD47 cells, anti-human IgG Fc APC detection.

Experiment [2] deals with T2, CD47 protein (CD47 antigen, soluble, Octet analyte) (human, UniProt Q08722 fragment, limits assumed).
T2 construct: Recombinant soluble CD47 used as analyte at 10 to 400 nM; The construct is not described; also called immune antigen protein; human CD47 protein
As to the kind of experiment: BLI (Octet RED 96e), HCAb on anti-human Fc tips, CD47 antigen 10-400 nM, 1:1 global fit. For orientation: In BLI a coated tip is dipped into the sample, and binding shifts an interference pattern.

Experiment [3] has as its target T1, CD47 antigen expressed on Expi-CHO_CD47 …. As to the kind of experiment: FACS competition: displacement of human SIRPalpha-His (10 µg/ml) from Expi-CHO_CD47 cells.

B1: Anti-CD47 HCAb (CD47 Nb #02-IgG1) (Fc fusion)
heavy: QVQLVESGGGLVQPGGSLRLSCTASGSTLNYYIISWFRQTPGKEREGVSCIGSSGAGTNYAASVKGRFTISRDDAQNTVYLFMNDLKPEDTAVYYCAARPFSFSPFCTFAGMKDWGKGTLVTVSSGPGGP[human IgG1 Fc with changes left out here]
notes: Heavy chain-only antibody: alpaca VHH CD47 Nb#02 fused to a human IgG1 Fc domain, expressed in Expi-CHO cells
Consider B1, for which a half-maximal response in experiment [1] (EC50) required 14.6 nM. In experiment [2], the Kd (commonly a measure of binding affinity in units of concentration) was found to be 5.07 nM; the koff (usually the first-order rate constant of dissociation) came to 0.000721 s⁻¹; the kon (as a rule, the rate constant with which the complex forms) amounted to 142000 M⁻¹ s⁻¹. Further, the concentration for half-maximal inhibition (IC50) (in general, the concentration at which inhibition is half-maximal) in experiment [3] came to 75.2 nM.
